{"source": "the supplement of paper PMC10126150", "note": "Sequences with one replicate were seen in a single cluster, so their values are uncertain.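 Also: ATP exposure 15 min at 22 °C before imaging.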"}
{"system": "ATP", "test": "switch fluorescence ratio, 500 uM ATP over buffer (Cy3 cluster intensity, sum of 5 cycles each) (fold (ratio)); higher = stronger signal-on switching upon ATP binding; sequences stand for … in TCGTCGGCAGCGTCAGATGTGTATAAGAGACAGTTTTTTTTTTTTTTTTTTTTTTTTT…TC", "conditions": "aptamer strand: ATP DNA aptamer (quencher-CACCTGGGGGAGTATTGCGGAGGAAGG + anchor), 100 nM annealed; ATP concentration: 500 uM; one replicate", "outline": "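Clusters carrying Cy3-labelled switching strands on a modified Illumina MiSeq flow-cell were annealed to 100 nM quencher-labelled ATP aptamer and imaged in selection buffer. They were imaged again after 15 min with 500 uM ATP at 22 °C, over five buffer/ATP cycles with NaOH stripping and re-annealing in between. For each cluster, the fluorescence ratio is the summed Cy3 intensity of the target cycles divided by that of the buffer cycles, averaged per switch-domain sequence. Clusters outside 100-1000 RFU were left out.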"}
{"sequence": "GCATTATTAT", "switch fluorescence ratio": 0.992}
{"sequence": "GCATTCCACC", "switch fluorescence ratio": 1.31}
{"sequence": "GCATTCCGAG", "switch fluorescence ratio": 2.1}
{"sequence": "GCATTTATCG", "switch fluorescence ratio": 1.01}
{"sequence": "GCCAAACGTC", "switch fluorescence ratio": 1.1}
{"sequence": "GCCAAAGGCG", "switch fluorescence ratio": 0.99}
{"sequence": "GCCAAAGTGC", "switch fluorescence ratio": 0.997}
{"sequence": "GCCAAATACG", "switch fluorescence ratio": 1.22}
{"sequence": "GCCAACCGTA", "switch fluorescence ratio": 0.991}
{"sequence": "GCCAATAGGG", "switch fluorescence ratio": 0.943}
{"sequence": "GCCAATCTAA", "switch fluorescence ratio": 0.953}
{"sequence": "GCCACGGGAC", "switch fluorescence ratio": 1.38}
{"sequence": "GCCACGGGGT", "switch fluorescence ratio": 1.02}
{"sequence": "GCCACTGTCA", "switch fluorescence ratio": 1.05}
{"sequence": "GCCACTGTCT", "switch fluorescence ratio": 0.948}
{"sequence": "GCCAGAAACG", "switch fluorescence ratio": 1.01}
{"sequence": "GCCAGAATTA", "switch fluorescence ratio": 1.02}
{"sequence": "GCCAGACGTC", "switch fluorescence ratio": 0.997}
{"sequence": "GCCAGCACGG", "switch fluorescence ratio": 1}
{"sequence": "GCCAGCCGCC", "switch fluorescence ratio": 1.09}
{"sequence": "GCCAGCGACT", "switch fluorescence ratio": 1.02}
{"sequence": "GCCAGCTTGT", "switch fluorescence ratio": 0.98}
{"sequence": "GCCAGGCAGC", "switch fluorescence ratio": 1.04}
{"sequence": "GCCAGGGCGG", "switch fluorescence ratio": 0.984}
{"sequence": "GCCAGGTTGC", "switch fluorescence ratio": 1.22}
{"sequence": "GCCAGTACTG", "switch fluorescence ratio": 0.98}
{"sequence": "GCCAGTCC", "switch fluorescence ratio": 1.05}
{"sequence": "GCCAGTCTGT", "switch fluorescence ratio": 1}
{"sequence": "GCCATAGCCG", "switch fluorescence ratio": 1.09}
{"sequence": "GCCATAGTG", "switch fluorescence ratio": 1.04}
{"sequence": "GCCATCTAGT", "switch fluorescence ratio": 0.976}
{"sequence": "GCCATTAACT", "switch fluorescence ratio": 1.01}
{"sequence": "GCCATTAATT", "switch fluorescence ratio": 0.982}
{"sequence": "GCCATTCGCT", "switch fluorescence ratio": 0.957}
{"sequence": "GCCATTCTAA", "switch fluorescence ratio": 0.974}
{"sequence": "GCCATTGATC", "switch fluorescence ratio": 0.981}
{"sequence": "GCCCAAGCGA", "switch fluorescence ratio": 1.1}
{"sequence": "GCCCAATCAT", "switch fluorescence ratio": 0.96}
{"sequence": "GCCCAATGT", "switch fluorescence ratio": 1.01}
{"sequence": "GCCCACTCTC", "switch fluorescence ratio": 0.971}
{"sequence": "GCCCATAAGG", "switch fluorescence ratio": 0.987}
{"sequence": "GCCCATACGA", "switch fluorescence ratio": 1.29}
{"sequence": "GCCCATGACT", "switch fluorescence ratio": 1.02}
{"sequence": "GCCCCGGCC", "switch fluorescence ratio": 0.977}
{"sequence": "GCCCCGTG", "switch fluorescence ratio": 1.08}
{"sequence": "GCCCCGTGAG", "switch fluorescence ratio": 1.81}
{"sequence": "GCCCCTGCAC", "switch fluorescence ratio": 1.03}
{"sequence": "GCCCGAGTGG", "switch fluorescence ratio": 1.04}
{"sequence": "GCCCGCCGCG", "switch fluorescence ratio": 1.45}
{"sequence": "GCCCGCGG", "switch fluorescence ratio": 1.01}
{"sequence": "GCCCGCGTGA", "switch fluorescence ratio": 1.16}
{"sequence": "GCCCGGAGCT", "switch fluorescence ratio": 1.65}
{"sequence": "GCCCGTTCAA", "switch fluorescence ratio": 1.05}
{"sequence": "GCCCGTTCGT", "switch fluorescence ratio": 1.03}
{"sequence": "GCCCGTTGTA", "switch fluorescence ratio": 1.03}
{"sequence": "GCCCTATAC", "switch fluorescence ratio": 1.81}
{"sequence": "GCCCTATGC", "switch fluorescence ratio": 0.999}
{"sequence": "GCCCTCACGA", "switch fluorescence ratio": 1.05}
{"sequence": "GCCCTGATCT", "switch fluorescence ratio": 1.05}
{"sequence": "GCCCTGCGTG", "switch fluorescence ratio": 1.07}
{"sequence": "GCCCTTTAAG", "switch fluorescence ratio": 0.978}
{"sequence": "GCCCTTTGTG", "switch fluorescence ratio": 1.04}
{"sequence": "GCCGAATGTC", "switch fluorescence ratio": 1.04}
{"sequence": "GCCGACGGAA", "switch fluorescence ratio": 3.83}
{"sequence": "GCCGACTCT", "switch fluorescence ratio": 1.04}
{"sequence": "GCCGAGGCCA", "switch fluorescence ratio": 1.02}
{"sequence": "GCCGATACAA", "switch fluorescence ratio": 1.25}
{"sequence": "GCCGATACGT", "switch fluorescence ratio": 1.04}
{"sequence": "GCCGATGTTG", "switch fluorescence ratio": 1.01}
{"sequence": "GCCGCATTAT", "switch fluorescence ratio": 2.57}
{"sequence": "GCCGCCACGG", "switch fluorescence ratio": 1.04}
{"sequence": "GCCGCCGTAG", "switch fluorescence ratio": 1.05}
{"sequence": "GCCGCGCGTA", "switch fluorescence ratio": 0.96}
{"sequence": "GCCGGAATGT", "switch fluorescence ratio": 1.12}
{"sequence": "GCCGGACCCT", "switch fluorescence ratio": 1.07}
{"sequence": "GCCGGACCGA", "switch fluorescence ratio": 1.01}
{"sequence": "GCCGGACTAC", "switch fluorescence ratio": 1.33}
{"sequence": "GCCGGAGGG", "switch fluorescence ratio": 1.02}
{"sequence": "GCCGGGCATC", "switch fluorescence ratio": 1}
{"sequence": "GCCGGTGGG", "switch fluorescence ratio": 1.02}
{"sequence": "GCCGGTGGTT", "switch fluorescence ratio": 1.03}
{"sequence": "GCCGTCCCGC", "switch fluorescence ratio": 1.02}
{"sequence": "GCCGTCGCAA", "switch fluorescence ratio": 1.31}
{"sequence": "GCCGTCTTG", "switch fluorescence ratio": 1.04}
{"sequence": "GCCGTGAGCG", "switch fluorescence ratio": 0.997}
{"sequence": "GCCGTGAGGT", "switch fluorescence ratio": 1.01}
{"sequence": "GCCGTGGGGT", "switch fluorescence ratio": 1.02}
{"sequence": "GCCGTGGGTG", "switch fluorescence ratio": 1.04}
{"sequence": "GCCGTTGCTT", "switch fluorescence ratio": 1.02}
{"sequence": "GCCGTTGTTT", "switch fluorescence ratio": 0.999}
{"sequence": "GCCTAACGGC", "switch fluorescence ratio": 0.992}
{"sequence": "GCCTAAGAGA", "switch fluorescence ratio": 0.979}
{"sequence": "GCCTAAGATC", "switch fluorescence ratio": 1.03}
{"sequence": "GCCTAAGTAC", "switch fluorescence ratio": 1.29}
{"sequence": "GCCTAATCGA", "switch fluorescence ratio": 0.982}
{"sequence": "GCCTACCGCA", "switch fluorescence ratio": 2.25}
{"sequence": "GCCTAGACTT", "switch fluorescence ratio": 0.994}
{"sequence": "GCCTAGCCTT", "switch fluorescence ratio": 1.03}
{"sequence": "GCCTAGTTTG", "switch fluorescence ratio": 0.964}
{"sequence": "GCCTATTATT", "switch fluorescence ratio": 1.02}
{"sequence": "GCCTCAACTT", "switch fluorescence ratio": 1.16}
